Laboratory results published in paper PMC9917060.
These are yes or no findings as the source states them, for the method shown. In cells and extracts the contact can be indirect. Some results given as binding are weak or reduced against the parent protein; the word gives no strength. Where a sequence is shown, tags or fusion partners need not be part of it.

T1: GFP-HsPP5 (human PP5) (human) (UniProt P53041)
T1 sequence: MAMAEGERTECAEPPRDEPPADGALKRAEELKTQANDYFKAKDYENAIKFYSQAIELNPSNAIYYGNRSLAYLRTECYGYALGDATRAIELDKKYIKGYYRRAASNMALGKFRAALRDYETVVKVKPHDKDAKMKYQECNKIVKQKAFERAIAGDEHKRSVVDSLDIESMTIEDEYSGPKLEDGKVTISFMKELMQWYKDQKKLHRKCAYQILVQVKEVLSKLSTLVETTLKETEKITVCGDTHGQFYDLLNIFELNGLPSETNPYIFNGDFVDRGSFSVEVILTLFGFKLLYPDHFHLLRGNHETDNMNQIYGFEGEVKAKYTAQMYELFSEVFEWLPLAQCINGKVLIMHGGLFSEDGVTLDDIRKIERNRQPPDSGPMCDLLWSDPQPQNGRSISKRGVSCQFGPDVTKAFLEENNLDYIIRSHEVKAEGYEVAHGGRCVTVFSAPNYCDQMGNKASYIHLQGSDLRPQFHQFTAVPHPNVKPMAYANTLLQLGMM

T2: dephosphorylated MBP-Plk4-TE (Drosophila melanogaster) (UniProt O97143)
T2 sequence: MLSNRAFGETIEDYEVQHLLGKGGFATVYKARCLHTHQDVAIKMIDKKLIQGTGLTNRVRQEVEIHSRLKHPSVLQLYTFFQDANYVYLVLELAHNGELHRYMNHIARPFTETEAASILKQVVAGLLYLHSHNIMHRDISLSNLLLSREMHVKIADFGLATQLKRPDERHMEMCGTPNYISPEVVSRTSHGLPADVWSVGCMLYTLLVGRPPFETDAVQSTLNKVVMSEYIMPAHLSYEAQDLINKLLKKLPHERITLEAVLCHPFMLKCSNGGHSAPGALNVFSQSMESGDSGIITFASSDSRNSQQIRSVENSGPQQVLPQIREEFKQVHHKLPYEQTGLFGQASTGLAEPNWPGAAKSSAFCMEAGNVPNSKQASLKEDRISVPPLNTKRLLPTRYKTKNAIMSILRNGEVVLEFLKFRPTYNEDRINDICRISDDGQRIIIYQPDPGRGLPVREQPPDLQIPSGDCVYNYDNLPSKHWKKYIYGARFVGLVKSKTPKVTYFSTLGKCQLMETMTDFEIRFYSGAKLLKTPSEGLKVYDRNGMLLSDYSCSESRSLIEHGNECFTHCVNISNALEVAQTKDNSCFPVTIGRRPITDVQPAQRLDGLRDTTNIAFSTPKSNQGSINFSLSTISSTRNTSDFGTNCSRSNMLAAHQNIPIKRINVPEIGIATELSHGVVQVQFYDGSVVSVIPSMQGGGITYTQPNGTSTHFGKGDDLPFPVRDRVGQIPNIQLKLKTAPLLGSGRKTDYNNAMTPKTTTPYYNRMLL

T3: p-MBP-Plk4-TE (self-phosphorylated, constitutively active Drosophila Plk4) (Drosophila melanogaster) (UniProt O97143)
T3 sequence (chain, self-phosphorylated (auto-phosphorylation in bacteria; sites not named)): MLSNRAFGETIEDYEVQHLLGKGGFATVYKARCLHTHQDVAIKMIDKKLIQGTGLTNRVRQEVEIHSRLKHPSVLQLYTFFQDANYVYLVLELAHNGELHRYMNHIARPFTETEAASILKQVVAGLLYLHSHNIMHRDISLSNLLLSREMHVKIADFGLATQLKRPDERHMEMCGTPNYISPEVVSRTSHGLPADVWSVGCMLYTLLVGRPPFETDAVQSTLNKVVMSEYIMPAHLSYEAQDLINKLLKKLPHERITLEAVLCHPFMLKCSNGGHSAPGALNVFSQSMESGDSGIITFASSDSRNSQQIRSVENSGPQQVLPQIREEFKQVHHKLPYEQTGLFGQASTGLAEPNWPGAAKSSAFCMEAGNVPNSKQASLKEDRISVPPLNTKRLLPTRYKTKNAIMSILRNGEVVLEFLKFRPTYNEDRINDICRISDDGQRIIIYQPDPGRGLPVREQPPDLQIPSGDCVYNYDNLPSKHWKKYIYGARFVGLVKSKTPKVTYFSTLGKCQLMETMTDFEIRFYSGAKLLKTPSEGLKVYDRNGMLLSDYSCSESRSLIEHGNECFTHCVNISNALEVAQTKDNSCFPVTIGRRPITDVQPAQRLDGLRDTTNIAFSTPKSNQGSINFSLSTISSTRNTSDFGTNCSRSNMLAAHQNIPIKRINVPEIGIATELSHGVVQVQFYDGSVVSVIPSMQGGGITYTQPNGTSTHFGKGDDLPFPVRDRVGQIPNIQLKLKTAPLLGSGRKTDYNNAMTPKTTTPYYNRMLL


Key:
[1] = molecular target: T1, GFP-HsPP5 (human PP5) (human); experiment: co-IP; GFP-Trap magnetic agarose beads on lysates of transiently co-transfected HEK293 cells in EB buffer, 4 °C, 90 min; blots with anti-FlagM2 and anti-GFP
[2] = molecular target: T2, dephosphorylated MBP-Plk4-TE (Drosophila melanogaster); experiment: pull-down; MBP-Plk4-TE, phosphorylated or dephosphorylated, immobilized on amylose resin and incubated with 35S-labelled IVTT products; SDS-PAGE and autoradiography; only the target purified
[3] = molecular target: T3, p-MBP-Plk4-TE (self-phosphorylated, constitutively active Drosophila Plk4) (Drosophila melanogaster); experiment: as above

Row | Binder | binding [1] | binding [2] | binding [3]
1 | Flag-HsPlk4-ND (non-degradable human Plk4) (enzyme, UniProt O00444 1-970) MATCIGEKIEDFKVGNLLGKGSFAGVYRAESIHTGLEVAIKMIDKKAMYKAGMVQRVQNEVKIHCQLKHPSILELYNYFEDSNYVYLVLEMCHNGEMNRYLKNRVKPFSENEARHFMHQIITGMLYLHSHGILHRDLTLSNLLLTRNMNIKIADFGLATQLKMPHEKHYTLCGTPNYISPEIATRSAHGLESDVWSLGCMFYTLLIGRPPFDTDTVKNTLNKVVLADYEMPSFLSIEAKDLIHQLLRRNPADRLSLSSVLDHPFMSRNSSTKSKDLGTVEDSIDAGHAAISTAITASSSTSISGSLFDKRRLLIGQPLPNKMTVFPKNKSSTDFSSSGDGNSFYTQWGNQETSNSGRGRVIQDAEERPHSRYLRRAYSSDRSGTSNSQSQAKTYTMERCHSAEMLSVSKRSGGGENEERYSPTDNNANIFNFFKEKTSSSSGSFERPDNNQALSNHLCPGKTPFPFADPTPQTETVQQWFGNLQINAHLRKTTEYDSISPNRDFQGHPDLQKDTSKNAWTDTKVKKNSDASDNAHSVKQQNTMKYMTALHSKPEIIQQECVFGSDPLSEQSKTRGMEPPWGYQNRTLRSITSPLVAHRLKPIRQKTKKAVVSILDSEEVCVELVKEYASQEYVKEVLQISSDGNTITIYYPNGGRGFPLADRPPSPTDNISRYSFDNLPEKYWRKYQYASRFVQLVRSKSPKITYFTRYAKCILMENSPGADFEVWFYDGVKIHKTEDFIQVIEKTGKSYTLKSESEVNSLKEEIKMYMDHANEGHRICLALESIISEEERKTRSAPFFPIIIGRKPGSTSSPKALSPPPSVDSNYPTRERASFNRMVMHSAASPTQAPILNPSMVTNEGLGLTTTASGTDISSNSLKDCLPKSAQLLKSVFVKNVGWATQLTSGAVWVQFNDGSQLVVQAGVSSISYTSPNGQTTRYGENEKLPDYIKQKLQCLSSILLMFSNPTPNFH | binds | – | –
2 | ^35S-Sas4 (protein, UniProt Q9VI72 1-901, 35S-methionine-labelled) MQEAGESPVGMPLSQEAIAQRLAALSRWQDEQKRLLQERQSNHRVLLGLEQRNMYKMLGLLHQETESHENSVLEEWDEEHSIQMPRLAADPDEHEPEISMADPQPAKPKRPFLRRGEGLKQRFKINPDQLRLENLPRYKFANAHPQFRTPQMKKGILKKQVKSPPNPAPPPAPKPSAQLDDLNEQRFQQMLIGKNACSSTPDLKSSYASSTTASSTSPRVRFVEQKSRAGQTTHADDEASSEASPMTGVCWAKVLDTQSIKPAQIQRRSAQIRVEDDSNVSIFELLEQKATEGNIDMNSSCIRTFMARKDQRRRVADDSDHIVVTQQVRQMRLQPQVDQMLVQELQEGDEEDTEPSSDQTLTMTPIQVGNTKVRVRFSDSNDTHEYSDATSLNDGSNIQLFEQFKSALFQALEQKKKSSPSKESDEPITKDLQEKANLVRTRLEELETEIATFKEQNAQLLRLRQQHELEKAKCTQDHMEAMERVHDEKIQAEIYLHDERMKIEEERRKFEQQMRLQKSNANSKEKKEIAALKQEVEGLQLQLKQKEQAHVSAQARLRAQLRASEKEQRNYRDEIELLRKENKRLEQELVKIGRENNSKMLQEINRNIARLAPKVLPSATMSDILDENGRRTQSLDGTAGKPAKQREAQNRRQSSGSAQVRSRSRSLSRNKKTPYALDESYASSSSVESEEVQPPVTAPKAATPPPAANSSSDFKREITNADGSKDIWYPNGNLKKISADGMNLRMLYFNKDIKETNIREGTVKYYYAETNTWHTSYLDGLEILEFPNGQTEHRRKDGTVEIHFPNNSIKIVDPSDTEKLEEWRYADGTHLVQLRNGDKILNLPNGQKEIHTKLNKRREYPDGTVKLVYPDGSQETRYSNGRVRLKDKDGKLIMDTDYAKY | – | binds | –
3 | ^35S-Ana2 (protein, UniProt Q9XZ31 1-420, 35S-methionine-labelled) MFVPETEDMLPRLAPRPSAAVPMGHTNEIIGPTVPEVSILFGQPPQDPQMQPQQPNHAHQESSPRAAPTFASWKKQMLPRVNFSPILATELGPRTAPSSNSPCSSKEYQVMPRDRNYASDAQQTTNHMNCNAGGYNAEPKQQAYQSRRLSSSSNADVLTICAGTQTDPFNPSPPRKSLPQVVYSDIDVSNLANKSDLAALVSLVESVRHEQQQLRNLCEMILEQQQRAKPEAISKASSTTGTQCDILTTNQAGRRLSPIMQDYIAEEEEPLPPPQARVIPQFPSPRPHPPIAQSTGYRANTPQAKRIPQLAKPNTEKSMVMNELALKYLRQPVDELMKDMRLGASPKSPNPEPLRPIDNIGHAQSPNDISNASYKYLKKYRLLPEEQLEPVCPQSPMAATAPSPHIQLDLENIRNQPKLL | – | no binding | no binding
4 | ^35S-Sas6 (protein, UniProt Q9VAC8 1-472, 35S-methionine-labelled) MWPPGSEDSYSAKMDYGKSVVNILPSVEMLVNFNGEMTRSSKRSCLLYAERVDFKELLQLRLTEKSDQRRMYITTVDSASFQDLKQDQSLNVSFSGFIDNVVRMLKDCQSGKLELHLTTRDQNLSSGREVHDYYLQFVEIRSFKNLVHLSLPCRSAPLNTVLFYINSMLEASHKKQYILEQSMQQMQAEINAQRAHAERLTTENTNIREALAENTRILEEKHAAEVHQYQEKLSKINEQRSNELERNRRAISGFQAQLDKASLEKAELKSAQEQAEKRCQTLSEELSCCKARVCTLKEQNDKLHGDVANIRKHERKLEYKIEDLKQHTVELQEHIQKGNKEKANIAAELEAEKKILHTKRQALEMASEEISKANQIIVKQSQELLNLKKTIAWRTEVALQQEKAVQAKESLLSLRENELREARITIEKLREEIPQQLQSMRNFAQGLEQKYSKQILILKERLAIPTGKENRR | – | no binding | no binding
